Some of the results follow. At the low end of the ranking, values are background and their order means little. The protein was read in a cell extract, so binding may be indirect.
Molecular target: T1, HNF4alpha2 (COS-7 nuclear extract) (UniProt P41235)
T1 sequence: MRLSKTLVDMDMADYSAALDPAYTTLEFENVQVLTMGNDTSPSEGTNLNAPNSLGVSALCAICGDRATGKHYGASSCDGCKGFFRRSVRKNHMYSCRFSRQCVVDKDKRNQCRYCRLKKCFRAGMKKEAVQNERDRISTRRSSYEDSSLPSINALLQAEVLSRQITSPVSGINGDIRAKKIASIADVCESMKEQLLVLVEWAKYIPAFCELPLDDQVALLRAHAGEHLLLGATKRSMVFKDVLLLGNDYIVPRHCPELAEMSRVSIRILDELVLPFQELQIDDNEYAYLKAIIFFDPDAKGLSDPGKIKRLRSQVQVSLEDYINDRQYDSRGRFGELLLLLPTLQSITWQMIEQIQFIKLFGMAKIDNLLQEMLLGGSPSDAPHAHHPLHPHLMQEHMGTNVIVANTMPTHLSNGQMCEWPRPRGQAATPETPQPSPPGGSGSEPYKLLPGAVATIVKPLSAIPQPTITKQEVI
Experiment: protein-binding microarray
Conditions: COS-7 nuclear extract on double-stranded Agilent 4x180k PBM; binding buffer, salt, pH and temperature not given; high values mean tight binding; double strand, one strand shown; sequences stand for … in …GCCTAGGGAGATTAGAGTATCGGTCGA

Sequence | binding signal (log2 normalized intensity)
GTTAACCTCCTATGATCTTTCATTCCTATT | -1.22
AATGCTGGAGTTAAAGCTTTGAGGAACTAG | -1.19
TACTTATGGTTTGACCCTGCGATAAGTAGA | 1.91
ATGACCTCTGCACCCTTCCCTGAGTTTCCA | 2.73
GAGGGTAGAGGAGCCAGAGGGGCCAGGAAC | -1.19
CTGATTTAGCTATTTGACCTTCGGCCTCAA | 8.16
AAAAGAGTTGCTCAAACCAACATTATTAGC | -1.15
GAGTCTGTTGCAAGCAATGGAGAGGATTTT | 0.418
TGGAACCTGTCTGACAGGATGAATTTATTG | 0.0101
AGGATGTGTGCTCGAGGTGGACTTTCCCCC | 6.07
AACTCAGTGAGGGCTATTGACAAAGACCAG | -1.08
AAAGGAAGGAATTTACTGCAGTCAGGGGTT | -0.248
GATAAGAATTTTGTGCAATTACACAACTTC | -0.884
TATTTTCTTATCTGCCTAGGCATTTGGCTG | -1.06
GTTGACATTTGAACCCAACCGTCCAGAGTC | 2.44
CCTCTAGATAAACCAAGCCTGCAGCACCTT | -1.05
GGAGAGGGAGAGTGAGTGAGTGTGTGTGTG | 2.52
TGAATAGGTCTTGGAATGTGACGGCAGGTC | 1.28
AAGATAAGATGTACCATTCATGGACAGCCT | -1.02
GCACACTGGCAAATGTGAATGGACTCTGCC | 3.28
AGATAATGCCAGAAAGGTCTAAAAGTAGCT | -1.29
TTGCACTGCTCAGGGTGGGGTCTCGCTGCT | -0.755
TGGCTTCCGTGCCTGCATGGGCTGTCACCT | -1.18
GAGAAACGCACTCGCCTCTCCTGTTCCGGT | -0.892

Sequence | binding signal (log2 normalized intensity)
GTGGAAAGACAAGTTGAAGCCAGATTGTCA | -1.02
CGTCCGTGCACCCTTCCTCTGCAGCCGCCC | -1.05
CGATAATTACCTGGTCAGAAGAAACATGCG | -0.0791
CTGATTTCAAAGTTCAGTTTGATTACTTGG | 2.12
ATGCCAGTGGGAAAACAAACTTTCCTCTCT | -1.02
ACAGGCCTCCCCCCTTCTGTTTCCAGAAAT | 3.71
CCCAACCCTCTCCCACTCCCCTCCTCCAGA | 5.01
TGCACCCCCTTCCCACCTGCTGTCCAACCT | 4.48
GGGTGGTGAAATGGGGGAAGGGCTGGAGAC | -1.18
TTACTTGCTGGAGAAAGAGGGGAAGGATGA | -1.06
TAAGTGAAAGTACACAGTGCCTGCTTGCAG | -1.12
TAGAAAGTCAGTGAAGGAGCTGACTAGATT | -1.11
TAGAAAGGAGTACACACCATAAGAGGCTCT | -1.12
GAAGGTCGAGGCCAGGGATTAAAGAATTCG | -1.21
CTCTTTTACTGTACTTCTTTAGGACTGCTC | 1.58
TACACCCCTCACTCCCTCCAGCTGTCTTGG | 3.14
TCAAAGGGCATTACTTGCTGGAGAAAGAGG | -0.762
ATCCCGTGGACTTTGCCTGCCCATCCCGTG | 3.13
TATCTCTGTGGATAGCTCAGGGATTAACGA | 0.373
GCACTGATAAGCGTATTTCAACCTTTGATC | 7.8
ATGATAAGTTGGAATTTGGGTGATCCTGGT | 1.69
TGCTGCAATTTAAGCTTACTTCCTCTCCTA | -1.17
CTTTGGCCTTTTGTGAGATATGGACTGTAG | 2.72
GACCTCACATTGTAGCTAAAATGTTAATGA | 0.663

Sequence | binding signal (log2 normalized intensity)
CTGCCACTTATTGTGTTATGTACTTAGTGT | 2.59
GAAATGTAGTTCCGGAGAACACGGAGTCCT | -0.635
TTCCATGTCCAAAGGTCTTCATGAGCAATA | 2.9
CTGTGACACCCTGGTTGACACTCGAGGATC | -0.57
CTTGGATTTTCTCATCCCAGGGATAATGAT | 0.183
GCACAGCTTATCACTGGTGATGTGAACCTC | 2.27
AACCACCAGATAGAGCTTTTGAGGGTGACC | 1.87
TCAAAGCCCAACCAGGATAGGGAGGGGTAA | -1.01
TTAGCCTTTGAACCCCACACCTCCCTTGCA | 3.9
CGGTTCCCAATAAGTTCCTCATTTTCATGT | 0.676
GCCTGAGCTATCTGTTTGAGGTTCACTGGG | 1.55
TTCCTTTTTTGGTTCCCCTTCCCCCAACAG | 4.87
TGTGGGCAAATAGGATTAGGAAACCTGGTA | -1.09
GCCTTGCACACTCGCCTGGCTCCCCACGTG | -1.13
GAAGCTTAGAGAGAGAAATTGCTTAAGTGC | -1.25
ATGATTATGCCTCTGTGACCTATAATCAGA | 2.56
GGAAAGGGCACTGATAACCTGCATTTGAAA | -1.23
GCTTGTCCTTTTGACCACAGTTATCTCCCC | 2.78
TCTAGCATCCCTCTCTTGCTGGGCCCCCAG | 2.43
ATTGCCTTTCTCTGTGTGTATGTGTGTGTA | 3.27
TGCATCGCAGTCGCCTGCAAGACAATACCT | -1.16
ACTCCTGTGCTGGAATGCTTTTCTAGAACC | 0.157
TCCAGAATTGTGTGGTTATCTGTTGGGGAA | 1.95
AGGAGGGAGGCAGGGAGACAACCTGGGTGT | -1.15

Sequence | binding signal (log2 normalized intensity)
ATTTGTCTCTGCTGGGCAGAGGGACAACTG | 0.928
GATTTGACTGGAATGTCAAAGGGACAGCAC | 0.572
CCCAGCTGAGATTCAGAATAGTTAAGTAAC | -1.06
TGATTTAATACGATATTAATGGTGACCCCT | 5.54
CTGGTGTGCTTTCTGTCCTCTCAAAGTCCA | 3.7
GAGGTGGGCCCAGGGTTCTCTGTGACCTTT | 6.79
GTCAGCTTCACTGATAGCGAGTTATCTGCA | -0.993
AACACTGACAGATTCCTGCTAACAGATAAA | -0.969
GAAGGCCCCCAGGTAGCTGCCAATGCAAAT | 1.89
TGGTGGGGAATGCTAGGACTCATTCTCCCC | 0.442
GGTAAGGGTGGGGGTGGGGAGGATAGCAGC | -0.961
TGCCACATACCTTTAAACATTCTTCTCAGT | 0.734
CAAATAGCAGAAAATCCAGGTGCAGTGTGA | 1.06
CCAGACAGAGAGGTCAGCAAATGTGGACAC | 0.904
TTTGAACTGGGTCTTAATAAGATAATAAGT | 1.44
GGCACAGTAACCTGACCCCCAGTGGAATGT | 3.32
CGCTGCGCCACAGCACCACCTGCTGGTCAG | -1.09
GCCTCCTGCTCTGGGCTTTCTCTGCCTCCA | -1.08
CTATGCAAACAGCGCTTATCTGGAAACTAT | -1.02
TTGACCTCTGCTAGGTTTGGGTAAGACTTA | 2.52
AAAAATTGCCCCCGGGCACAGGGTTGAGTG | 2.2
